Assay results: a compilation of properties of binary mixtures (doi:10.1007/s10973-018-7399-0)
Some of these densities may be calculated back from excess volumes.

Assay: xn = mol fraction of the nth substance listed
Conditions: 93.2 kPa

CC(=O)[O-].CCCC[NH3+] + CCO
mass density [kg/m3]
Conditions | 293.15 K | 298.15 K | 303.15 K | 308.15 K | 313.15 K
x1 = 0.0501 | 813.3 | 809.1 | – | 800.8 | –
x1 = 0.0992 | 832.1 | 828.1 | 824.1 | 820 | 816
x1 = 0.15 | – | 844.6 | 840.7 | 836.8 | –
x1 = 0.2001 | – | 858.6 | 854.8 | 851 | –
x1 = 0.2511 | 874.7 | 871 | 867.3 | 863.5 | 859.8
x1 = 0.3001 | – | 881.5 | 877.9 | 874.2 | –
x1 = 0.35 | 894.7 | 891.1 | 887.5 | – | 880.3
x1 = 0.3999 | 903.2 | – | 896.2 | – | 889.1
x1 = 0.4483 | 910.6 | 907.1 | 903.6 | 900.1 | –
x1 = 0.4987 | – | 914.1 | 910.7 | 907.2 | 903.8
x1 = 0.5503 | 924.1 | – | 917.2 | 913.8 | 910.4
x1 = 0.6002 | 929.8 | – | 923 | 919.7 | 916.3
x1 = 0.6511 | 935.2 | 931.9 | 928.5 | 925.1 | –
x1 = 0.7008 | – | – | 933.4 | 930.1 | 926.8
x1 = 0.7495 | – | – | 937.9 | 934.6 | 931.3
x1 = 0.7988 | – | 945.4 | 942.1 | 938.9 | 935.6
x1 = 0.8496 | – | – | 946.1 | – | 939.6
x1 = 0.9015 | 956.3 | 953.1 | 949.9 | 946.7 | 943.5
x1 = 0.9493 | 959.6 | 956.4 | 953.2 | 950 | –
x1 = 1 | 962.9 | 959.7 | – | 953.3 | 950.2
